According to patent publication US11407811B2, “Fusion protein, preparation method therefor and use thereof” (JIANGSU RONGTAI BIOTECH CO., LTD., priority 2017, dated 2022):

Experiments:
[1] = tested on: neovascularization in premature rat retinopathy model; assay: Neovascularization in premature rat retinopathy model (fluctuating oxygen-induced); assay type: in vivo; conditions: for Nucleus number (nucleus count of vascular endothelial cells): 100 μg intravitreal injection on day 7, counted on day 14, per section per eyeball; for nucleus counts of retinal vascular endothelial cells: intravitreal injection, dose of 100, day 14, oxygen model group 27.452±2.110
Experimental: A fluctuating oxygen-induced animal model was adopted, and newborn rats (within 12 hours) spontaneously delivered on the same day were randomly divided into three groups: an oxygen model group, an oxygen treatment group, and a normal control group. The oxygen model was subdivided into three model subgroups, which were placed in a semi-closed oxygen chamber made of plexiglass together with the treatment group. The medical oxygen was introduced into the chamber, and the oxygen concentration was adjusted to 80%±2% with an oxygen meter. After 24 hours, nitrogen gas was introduced into the oxygen chamber, and then the oxygen concentration was rapidly adjusted to 10%±2% and maintained for 24 hours. The operation was repeated, the oxygen concentration in the oxygen chamber was maintained to be alternated between 80% and 10% every 24 hours for 7 days, and then the rats were transferred to the air and fed. The oxygen concentration was monitored 8 times a day, and the ambient temperature in the chamber was controlled to 23° C.±2° C. The litter was replaced, food was added, water was changed, and mother rat was replaced once. The normal control group was placed in an animal house feeding environment.
The oxygen treatment group was divided into two sub-groups. On day 7 of modeling, the administration was performed via intravitreal injection, in which the fusion protein I, protein II, protein III, protein IV, and protein V were administered at a dose of 100 respectively. The oxygen model group and the control group were given only physiological saline for one week.
On day 14, after the rats was sacrificed with ether anesthesia, the eyeballs were removed and fixed in a 40 g/L paraformaldehyde solution for 24 hours. The eyeballs were dehydrated with gradient alcohols and hyalinized with xylene. After being immersed in wax, the eyeballs were continuously sectioned to a thickness of 4 avoiding the surrounding of the optic disc as much as possible. The sections were parallel to the sagittal plane of the cornea to the optic disc. 10 sections were randomly selected from each eyeball to be stained with hematoxylin and eosin, and the nucleus of vascular endothelial cells that broke through the inner limiting membrane of the retina was counted (only the nucleus of vascular endothelial cells closely related to the inner limiting membrane were counted), and the average number of cells per section per eyeball was counted.

[2] = tested on: breast cancer cell MDA-MB-231; assay: MTT assay, proliferation of breast cancer cell MDA-MB-231; assay type: cell-based
Experimental: The MTT assay was used to detect the inhibitory effect of the integrin blocker fusion protein obtained in Example 1 on the proliferation of various tumor cells, including melanoma cell B16F10, gastric cancer cell MGC-803, lung cancer cell A549, liver cancer cell Hep-G2, breast cancer cell MDA-MB-231, colon cancer cell HCT-116, human glioma U87, and cervical cancer cell Hela.
The tumor cells were cultured in a 5% CO2 incubator at 37° C. to a density of 90% or more, and collected by trypsinization. The cells were resuspended in the culture liquid and counted under a microscope. The cell concentration was adjusted to 3.0×10^4 cells/mL. The cell suspension was inoculated into a 96-well plate at 100 μL per well and cultured overnight in a 5% CO2 incubator at 37° C. […] After the cells were fully adhered, each dilution was added to a 96-well plate at 100 μL per well, respectively. […] 20 μL of 5 mg/mL MTT was added to each well of a 96-well plate, and incubation was continued for 4 hours. The medium was aspirated and 100 μL of DMSO per well were added to dissolve. The absorbance was measured at 570 nm with a microplate reader with a reference wavelength of 630 nm, and the proliferation inhibition (PI) was calculated. The formula is as follows: […]
(§1) where Ntest is the OD value of the test group and Ncontrol is the OD value of the blank control group.
The test was repeated 5 times independently. The results obtained from the test were calculated as mean±SD, and statistical t-test was performed. P<0.05 was considered as a significant difference, and P<0.01 was considered as an extremely significant difference.

[3] = tested on: human retinal vascular endothelial cell (HRCEC); assay: MTT assay, proliferation of human retinal vascular endothelial cell (HRCEC); assay type: cell-based; conditions: 48 hours
Experimental: The activity of the integrin blocker polypeptide to inhibit proliferation of human retinal vascular endothelial cells was examined by MTT assay. HRCEC cells were cultured in a 5% CO2 incubator at 37° C. to a density of 90% or more, and then collected by trypsinization. The cells were resuspended in the culture liquid and counted under a microscope. The cell concentration was adjusted to 3.0×10^4 cells/mL. The cell suspension was inoculated into a 96-well plate at 100 μL per well and cultured in a 5% CO2 incubator at 37° C. overnight. […] After the cells were fully adhered, each dilution was added to a 96-well plate at 100 μL per well, respectively. […] 20 μL of 5 mg/mL MTT was added to each well of a 96-well plate, and incubation was continued for 4 hours. The medium was aspirated and 100 μL of DMSO was added per well for dissolution. The absorbance was measured at 570 nm with a microplate reader with a reference wavelength of 630 nm, and the proliferation inhibition (PI) was calculated. The formula was as follows: […]
as §1
The test was repeated 5 times independently. The results obtained from the test were calculated as mean±SD, and statistical t-test was performed. P<0.05 was considered as significant difference, and P<0.01 was considered as extremely significant difference.

Molecule | Nucleus number (nucleus count of vascular endothelial cells) [1] | nucleus counts of retinal vascular endothelial cells [1] | A570 nm/A630 nm ([2]; dose 1 μg/mL) | PI (%) ([2]; dose 1 μg/mL) | A570 nm/A630 nm ([2]; dose 2 μg/mL) | PI (%) ([2]; dose 2 μg/mL) | A570 nm/A630 nm ([2]; dose 4 μg/mL) | PI (%) ([2]; dose 4 μg/mL) | A570 nm/A630 nm ([2]; dose 8 μg/mL) | PI (%) ([2]; dose 8 μg/mL) | A570 nm/A630 nm ([2]; dose 16 μg/mL) | PI (%) ([2]; dose 16 μg/mL) | A570 nm/A630 nm ([2]; dose 32 μg/mL) | PI (%) ([2]; dose 32 μg/mL) | A570 nm/A630 nm ([2]; dose 64 μg/mL) | PI (%) ([2]; dose 64 μg/mL) | A570 nm/A630 nm ([2]; dose 128 μg/mL) | PI (%) ([2]; dose 128 μg/mL) | A570 nm/A630 nm ([2]; dose 256 μg/mL) | PI (%) ([2]; dose 256 μg/mL) | other results
Protein I: IgG1-Fc linked to antiangiogenesis polypeptide EDSM-Y via a flexible linker; SEQ ID NO: 15 (protein) [sequence of human IgG1 Fc not given]GGGGSGGGGSGGGGSFQPVLHLVALNSPLSGGMRGIRGADFQCFQQARAVGLAGTFRAGGGGRGD | 6.502 ± 2.011 | 6.502±2.011 | 0.9977 ± 0.0403 | 3.96 | 0.9665 ± 0.0397 | 6.96 | 0.9201 ± 0.0382 | 11.43 | 0.8815 ± 0.0410 | 15.14 | 0.8006 ± 0.0287 | 22.93 | 0.7586 ± 0.0336 | 26.97 | 0.6988 ± 0.0296 | 32.73 | 0.6587 ± 0.0314 | 36.59 | 0.6023 ± 0.0327 | 42.02 | A570 nm/A630 nm ([3]; 1 μg/mL): 1.1856 ± 0.0395; PI ([3]; 1 μg/mL): 11.99%; A570 nm/A630 nm ([3]; 2 μg/mL): 1.0024 ± 0.0401; PI ([3]; 2 μg/mL): 25.59%; A570 nm/A630 nm ([3]; 4 μg/mL): 0.9248 ± 0.0383; PI ([3]; 4 μg/mL): 31.35%; A570 nm/A630 nm ([3]; 8 μg/mL): 0.9014 ± 0.0368; PI ([3]; 8 μg/mL): 33.09%; A570 nm/A630 nm ([3]; 16 μg/mL): 0.8314 ± 0.0344; PI ([3]; 16 μg/mL): 38.28%; A570 nm/A630 nm ([3]; 32 μg/mL): 0.7284 ± 0.0299; PI ([3]; 32 μg/mL): 45.93%; A570 nm/A630 nm ([3]; 64 μg/mL): 0.5879 ± 0.0327; PI ([3]; 64 μg/mL): 56.36%; A570 nm/A630 nm ([3]; 128 μg/mL): 0.3849 ± 0.0311; PI ([3]; 128 μg/mL): 71.43%; A570 nm/A630 nm ([3]; 256 μg/mL): 0.1488 ± 0.0296; PI ([3]; 256 μg/mL): 88.95%
Protein III: mIgG4-Fc linked to antiangiogenesis polypeptide EDSM-Y via a flexible linker; SEQ ID NO: 19 (protein) [sequence of human IgG4 Fc with S228P F234A L235A (EU numbers) and a few adjoining residues not given]GGGGSGGGGSGGGGSFQPVLHLVALNSPLSGGMRGIRGADFQCFQQARAVGLAGTFRAGGGGRGD | 6.471 ± 2.017 | 6.471±2.017 | 0.9913 ± 0.0412 | 4.57 | 0.9663 ± 0.0392 | 6.98 | 0.9103 ± 0.0387 | 12.37 | 0.8714 ± 0.0354 | 16.11 | 0.7956 ± 0.0291 | 23.41 | 0.7601 ± 0.0275 | 26.83 | 0.6963 ± 0.0211 | 32.97 | 0.6613 ± 0.0255 | 36.34 | 0.6213 ± 0.0230 | 40.19 | A570 nm/A630 nm ([3]; 1 μg/mL): 1.1125 ± 0.0403; PI ([3]; 1 μg/mL): 17.42%; A570 nm/A630 nm ([3]; 2 μg/mL): 0.9945 ± 0.0375; PI ([3]; 2 μg/mL): 26.17%; A570 nm/A630 nm ([3]; 4 μg/mL): 0.9168 ± 0.0362; PI ([3]; 4 μg/mL): 31.94%; A570 nm/A630 nm ([3]; 8 μg/mL): 0.8997 ± 0.0358; PI ([3]; 8 μg/mL): 33.21%; A570 nm/A630 nm ([3]; 16 μg/mL): 0.8347 ± 0.0274; PI ([3]; 16 μg/mL): 38.04%; A570 nm/A630 nm ([3]; 32 μg/mL): 0.7451 ± 0.0280; PI ([3]; 32 μg/mL): 44.69%; A570 nm/A630 nm ([3]; 64 μg/mL): 0.5974 ± 0.0193; PI ([3]; 64 μg/mL): 55.65%; A570 nm/A630 nm ([3]; 128 μg/mL): 0.3789 ± 0.0238; PI ([3]; 128 μg/mL): 71.87%; A570 nm/A630 nm ([3]; 256 μg/mL): 0.1453 ± 0.0247; PI ([3]; 256 μg/mL): 89.21%
